Measured values as given in the supplement of paper PMC12632987.
In all, about 2,300 sequences were measured (“median log2 fold change of GCK-ALFA target abundance (FLAG IP / Myc IP barcode read proportion)”: median about 0.095, lowest 2% from about -0.47 on). The list shows a part of the results.

B1: LC3A_28_858 (protein)
chain: SRTRESIRRAREELEKAVAAGEEVTITIEVTEDITPEEVKEVIAAIKEAAEASKDVPSLTVIVDVIGKVDPEHLKEIADAGEEASKANPNLTVIIALDEE
B2: LC3A_free_39_2289 (protein)
chain: MEEKLKKAVEELKKLLDEEPEITEEEKKIILEAASKSLEVAEALVKALKDIKAAGGDVAAFVKEVAELIKKLEEEGASQEELNKAVIEKAEDLRNLIPID
B3: LC3A_23_606 (protein)
chain: MYKIEVIVDVIVPKEEAEKVIEKILEVIEEIVEENKDKIKKVEVKIEKEELEDGRVYIRIDITITVDTTKEEAEEIRNKLVTRLSEVVPDAVISSEVEEL
B4: LC3A_127_214 (protein)
chain: EKEKLIKELLELIRKAQELLAKPDYDLEEIRKLLEEAIKVAKELLKLDERFKPVLEDLESALKLVDQMENLSPAEQEEARERVSMLLDGAEIELLSLELK
B5: LC3A_28_645 (protein)
chain: SAIDEQLAAAKAEAKAAAAAGEPVVVTLTLPGDADQEDVEKILEAMEEIAEILKDVPGSAIVVDIEKGVKQEHKDKIIDKAEEIEKKYPNVTVIIALEEE
B6: LC3A_127_173 (protein)
chain: EKEKLLEEIEKLAEEISKLLDKPDFDVEEIEKLLEEAIKKAKELLKLDPEAEPILEDAEAALKTLEQYKKAPEEKKPELREHLSMLVEGLLIEVLSLLLK
B7: LC3A_3_1602 (protein)
chain: MEELVEEQLERLRAAGFPPEVLEAARRVLEALAEKGFEEAAKTLTEELLELRDLPPEELLATLERILEIVETEDLNEEELIKRIKEEFRVARLAGEIEEL
B8: LC3A_3_1379 (protein)
chain: GEELLERAREILEEQGRSEEATEAALETLRALLERGYEEAAETLVELLEESEDLSDEELLAFFESVLRAVTEEDLSEEELIELIKEEFEVAKNAEEIEEL
B9: LC3A_28_1320 (protein)
chain: SEVEKEYEKAREQAEKQAALGEDITITVKVSGKMTKEEAEELMDKLEEIAEEYAPERKVNIIIDLDSKVKQEVIDLIADKAEEIEEKYPNVTVILALDEE
B10: LC3A_3_1466 (protein)
chain: AEELKKEAEKILKEQGRSEETIKEAKKLLEALAAKGYEEAMKTFVEELKKMKNVSDDILLATLKDLLHIVETEDLNEEEIVKEIKSEFSAAKNEQEIIEL
B11: LC3A_45_2004 (protein)
chain: MWEITIDLLGKPEVVKEAVEKIKEVAKELSKETGKKIEVDTSEAEEALAASQNEEEVFVTITIKVDGDEEDANKLIQAIDKVHEEIGPELASIISKEKIP
B12: LC3A_147_401 (protein)
chain: IVIEATVDVLGEEAAPLAKERAEEIVKELREKGAEVELEIEEEELAPGEVAVRITITVKVETEEAAEEATALISEKLDELAEEVAALGGAIISSIDVIEE
B13: LC3A_62_2055 (protein)
chain: MEKGTIYIDALFKTEETAEKFEKKVKEIVEEAKKEGINVELKIEREKEDGEYFVHVTITTDSEEATLKLYDKVVELVDEMIAEYPDEVLAAIISREIEKL
B14: LC3A_102_152 (protein)
chain: TPEEKLKEAAEKALEELLAAIEANERLTPEQKEEAKELARRAIEAKLRDQLSYLRHGFSDIEAEDEYIEAVERLREIDPELAELLEKKREELEKLAEELK
B15: LC3A_free_8_2511 (protein)
chain: NKEEAAKVISEKYDEIEKKIEELGKKDGLSELEINELLLVVGAEHMEVLLALEDGLEKAIEAAKEAKEEIMKALEPLSEESKKKVKELLEKLIEELKKIA
B16: LC3A_28_1224 (protein)
chain: SHVEEEIKKAEEEMEKAHKAGEEATITVKITGKTTVEDVEKLMEELEKIVEKYKDLPAISIIIDLSGDVSQEVIDKAAEGGEEIEEKFPNVTVILALDEE
B17: LC3A_45_1923 (protein)
chain: MWEATVDLLVPRELAEEALALIRELAAELEERYGPDLKVDLATLEESYEASKDEEDVYFEVKITHPDRDKALDAADELVDRLQEALGGKVAAMISLKEVP
B18: LC3A_17_569 (protein)
chain: SAETEKLYKEAVKALKEAAKFAATIDPEAAAKIKALLKEVEEAYKTLSDLEIAETIAKAMDEVSDILDSLEGKDPENASLLSMEMEGVAIEAESLALKLE
B19: LC3A_147_509 (protein)
chain: YIVEIDIDLLVKNKVEEVKEKFKEIVEELKKKGYEVELEIEEEKIDENTYYVKVKITIKAETKEEAEEAANLTLDLLDKLEEELKEDILGSLISVEITEA

Target: MAP1LC3A, Q9H492
Experiment: median log2 fold change of GCK-ALFA target abundance (FLAG IP / Myc IP barcode read proportion) (log2 ratio); each designed protein is fused to an ALFA-tag nanobody in HEK293 cells to bring the named protein to FLAG-tagged glucokinase (GCK); Myc marks an untargeted standard; higher = target protein stabilised (more abundant)
Details: target protein: 3xFLAG-MCP-GCK-ALFA reporter; HEK293 landing pad (RPLP)
Method in brief: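 An ALFA-nanobody-fused binder library was recombined into HEK293 landing-pad cells and induced with 2 μg mL^−1 doxycycline. Cells were transfected with a plasmid expressing a FLAG-tagged target and a Myc-tagged standard. After 48 h, lysates underwent anti-FLAG and anti-Myc immunoprecipitation, and circular RNA barcodes were reverse transcribed, amplified and sequenced. Target abundance is the per-binder median log2 ratio of FLAG to Myc barcode read proportions. Barcodes needed ≥10^−7 proportion in both replicates, binders ≥3 barcodes per replicate, and a 10^−6 pseudocount was added; the two replicates were pooled.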

| Binder | median log2 fold change |
| --- | --- |
| B1 | 0.258 |
| B2 | 0.377 |
| B3 | 0.19 |
| B4 | 0.409 |
| B5 | -0.232 |
| B6 | 0.0826 |
| B7 | 0.21 |
| B8 | 0.12 |
| B9 | 0.0662 |
| B10 | 0.346 |
| B11 | 0.0876 |
| B12 | -0.00887 |
| B13 | -0.0614 |
| B14 | 0.284 |
| B15 | 0.196 |
| B16 | 0.226 |
| B17 | -0.0824 |
| B18 | -0.0472 |
| B19 | -0.0549 |
